The values that follow are results of earlier work, collected in publication PMC11006913.

Numbering of substitutions follows the chain as printed. Some of the results follow.

Common to all, as to conditions: PBM; conditions not shown; double strand, one strand shown; scale: upbm affinity estimate (log intensity, higher = more binding, comparable within an allelic series)
Data set [1] has as its target T1, HESX1 N125S (Homo sapiens) (UniProt Q9UBX0).
T1 sequence: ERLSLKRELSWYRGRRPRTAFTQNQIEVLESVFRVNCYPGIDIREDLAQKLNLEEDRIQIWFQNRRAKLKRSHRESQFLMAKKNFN

Data set [2] deals with T2, HESX1 E149K (Homo sapiens) (UniProt Q9UBX0).
T2 sequence: T1 sequence with S31N, E55K

Data set [3] has as its target T3, HESX1 R160C (Homo sapiens) (UniProt Q9UBX0).
T3 sequence: T1 sequence with S31N, R66C

Data set [4] addresses PITX2 L100Q (Homo sapiens) (UniProt Q99697).
Data set [5] has as its target PITX2 R108H (Homo sapiens) (UniProt Q99697).
The target in data set [6] is PITX2 R130W (Homo sapiens) (UniProt Q99697).
Data set [7] has as its target PITX2 T114P (Homo sapiens) (UniProt Q99697).
Data set [8] concerns the target PROP1 R112Q (Homo sapiens) (UniProt O75360).
Data set [9] addresses PROP1 R99Q (Homo sapiens) (UniProt O75360).
A further data set addresses ISX (Homo sapiens) (UniProt Q2M1V0).
For a further data set, the target named is ISX R83Q (Homo sapiens) (UniProt Q2M1V0).
The target of another data set is T4, PBX4 (Homo sapiens) (UniProt Q9BYU1).
T4 sequence: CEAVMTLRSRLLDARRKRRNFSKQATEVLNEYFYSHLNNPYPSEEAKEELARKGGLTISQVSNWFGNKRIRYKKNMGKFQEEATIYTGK

The target in data set [10] is T5, PBX4 R215Q (Homo sapiens) (UniProt Q9BYU1).
T5 sequence: T4 sequence with R19Q

For data set [11], the target named is NKX2-5 K183E (Homo sapiens) (UniProt P52952).
For data set [12], the target named is NKX2-5 R161P (Homo sapiens) (UniProt P52952).
Data set [13] has as its target NKX2-5 R190C (Homo sapiens) (UniProt P52952).

Regarding AATTGAGA [8-mer AATTGAGA], the binding signal in data set [1] was 9.58.

Consider GAGGGAGC [8-mer GAGGGAGC], for which the binding signal was 9.92 in data set [2]; 7.36 in [1]; 10 in data set [3]; 8.03 in data set [4]; 8.01 in data set [5]; 7.91 in data set [6]. The binding signal in [7] is 8.09.

As to AATTACCA [8-mer AATTACCA], the binding signal in data set [2] was 11.4; in data set [8] it was 12.7; in data set [9], 12.2.

Take CGCCCGTC [8-mer CGCCCGTC]: the binding signal is 9.95 in [2]; 7.85 in data set [1]; 10.1 in data set [3]; 8.28 in [4]; 8.2 in [5]; 7.93 in data set [6]. In [7], the binding signal is 8.12.

Turning to AACCCCCG [8-mer AACCCCCG], the binding signal in data set [2] is 9.79; in [1], 7.39; in data set [3], 10; with ISX (Homo sapiens) it was 9.66; with ISX R83Q (Homo sapiens), 9.69.

As for ACGGAGCC [8-mer ACGGAGCC], the binding signal in [2] is 9.86; in data set [1], 7.6; in data set [3], 9.99; with ISX (Homo sapiens), 9.76; in the data set with ISX R83Q (Homo sapiens), 9.82.

Regarding AATGAAAT [8-mer AATGAAAT], in data set [1], the binding signal was 9.12.

With AGAATTAT [8-mer AGAATTAT], in data set [1], the binding signal is 9.27.

On to AGCCCTCC [8-mer AGCCCTCC], for which the binding signal is 9.79 in data set [2]; 7.57 in data set [1]; 10.1 in [3]; 10.9 in [8]; 11 in data set [9].

Regarding GCTTCGAC [8-mer GCTTCGAC], the binding signal was 9.91 in data set [2]; 7.72 in [1]; 10.1 in data set [3]; 10.9 in [8]; 11 in data set [9].

Regarding CAGCGCAG [8-mer CAGCGCAG], the binding signal in data set [2] was 9.87; in [1], 7.37; in data set [3] it was 9.89; in [8], 10.9; in data set [9] it was 10.9.

With AGTGCGAC [8-mer AGTGCGAC], the binding signal in data set [2] was 10; in [1] it was 7.93; in [3], 10.2; with PBX4 (Homo sapiens), 9.93; in data set [10], 9.78.

For the sequence ATTTATAA [8-mer ATTTATAA], the binding signal in [1] was 9.3.

In the case of ATACATTA [8-mer ATACATTA], in data set [1], the binding signal was 9.1.

Consider ACCCCCAG [8-mer ACCCCCAG], for which the binding signal in [2] was 9.9; in data set [1] it was 7.71; in data set [3] it was 10; in data set [11], 10; in data set [12] it was 10.2; in data set [13], 10.

For CAGGCCGG [8-mer CAGGCCGG], the binding signal in [2] was 9.71; in [1], 7.59; in data set [3], 9.85; in data set [4] it was 8.32; in [5], 7.97; in data set [6], 7.85. Also, the results for the binding signal in [7], in data set [8] and in [9] were 8.04, 10.7 and 10.7, respectively.
